In a collection of fitness landscapes (doi:10.1016/j.celrep.2020.107928):
In all, about 81,000 sequences were measured (“one-hybrid fitness for binding parS DNA”: median about -0.17, highest 2% from about 0.51 on). The list shows a part of the results.

B1: Caulobacter ParB omega fusion; a variant is named by its letters at X, in order, B8GW30 (parent)
chain: MESVVVGEPGMSEGRRGLGRGLSALLGEVDAAPAQAPGEQLGGSREAPIEILQRNPDQPRRTFREEDLEDLSNSIREKGVLQPILVRPSPDTAGEYQIVAGERAWRAAQRAGLKTVPIMVRELDDLAVLEIGIIENVQRADLNVLEEALSYKVLMEKFERTQENIAQTIGKSXSHVANXMRLLXLPDEVQSYLVSGELTAXHARAIAAAADPVALAKQIIEGGLSVRETEALARKAPNLSAGKSKGGRPPRVKDTDTQALESDLSSVLGLDVSIDHRGSTGTLTITYATLEQLDDLCNRLTRGI

Variants of: B1
Assay: one-hybrid fitness for binding parS DNA (scaled: cognate 1, non-cognate 0); higher = stronger binding
Conditions: with parS DNA site
In short: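 Bacterial one-hybrid selection in E. coli USO rpoZ- hisB- pyrF- with a HIS3 reporter carrying the site 19 bp from the promoter, screening Caulobacter ParB libraries with four specificity codons randomised (NNS). Cells grew 48 hours at 37°C on M9-minus-histidine plus 0.1 mM IPTG and 5 mM 3-AT. Plasmids before and after selection were Illumina-sequenced, three replicate libraries pooled, and variants under 10 reads dropped. Fitness is the log change in variant-to-wild-type read ratio, rescaled to cognate 1, non-cognate 0.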

| Variant | one-hybrid fitness for binding parS DNA |
| --- | --- |
| HNPW | ≤ 0.2 |
| PLMF | ≤ 0.2 |
| PPDY | ≤ 0.2 |
| MIPT | ≤ 0.2 |
| QHGD | ≤ 0.2 |
| HQSF | ≤ 0.2 |
| CSCT | ≤ 0.2 |
| AFSH | ≤ 0.2 |
| RIDD | ≤ 0.2 |
| KLCM | ≤ 0.2 |
| TTSY | ≤ 0.2 |
| HELS | ≤ 0.2 |
| PRKI | ≤ 0.2 |
| TATG | ≤ 0.2 |
| GLDA | ≤ 0.2 |
| VERV | ≤ 0.2 |
| RCIM | 0.369 |
| FFLS | ≤ 0.2 |
| ALTT | ≤ 0.2 |
| LGSV | ≤ 0.2 |
| LMTC | ≤ 0.2 |
| EYWR | ≤ 0.2 |
| PCHC | ≤ 0.2 |
| YKSS | ≤ 0.2 |
| DYIK | ≤ 0.2 |
| LNGC | ≤ 0.2 |

| Variant | one-hybrid fitness for binding parS DNA |
| --- | --- |
| GGGL | ≤ 0.2 |
| MLFS | ≤ 0.2 |
| WKCG | ≤ 0.2 |
| LKYE | ≤ 0.2 |
| VSGT | ≤ 0.2 |
| DAKR | ≤ 0.2 |
| DTVV | ≤ 0.2 |
| RPIW | ≤ 0.2 |
| AHGR | ≤ 0.2 |
| IKCG | ≤ 0.2 |
| DSGV | ≤ 0.2 |
| CAAC | ≤ 0.2 |
| DLKY | ≤ 0.2 |
| EPKW | ≤ 0.2 |
| HFSY | ≤ 0.2 |
| IIYR | ≤ 0.2 |
| PWPG | ≤ 0.2 |
| VSFG | ≤ 0.2 |
| TAAA | ≤ 0.2 |
| RNNM | 0.28 |
| VAAQ | ≤ 0.2 |
| QPPR | ≤ 0.2 |
| WFTL | ≤ 0.2 |
| NHVD | ≤ 0.2 |
| FNKG | ≤ 0.2 |
| YARY | ≤ 0.2 |

| Variant | one-hybrid fitness for binding parS DNA |
| --- | --- |
| TEKM | ≤ 0.2 |
| VELF | ≤ 0.2 |
| VKMG | ≤ 0.2 |
| QFES | ≤ 0.2 |
| NMYC | ≤ 0.2 |
| GINW | ≤ 0.2 |
| DYTF | ≤ 0.2 |
| DYQG | ≤ 0.2 |
| DLLR | ≤ 0.2 |
| KWDD | ≤ 0.2 |
| VGGS | ≤ 0.2 |
| MQKG | ≤ 0.2 |
| LLLC | ≤ 0.2 |
| LKKG | ≤ 0.2 |
| YLGM | ≤ 0.2 |
| AIEY | 0.322 |
| AAFE | ≤ 0.2 |
| PKRC | ≤ 0.2 |
| HTLN | ≤ 0.2 |
| KYRY | ≤ 0.2 |
| REHS | ≤ 0.2 |
| WTYW | ≤ 0.2 |
| MMGG | ≤ 0.2 |
| TLIA | ≤ 0.2 |
| RYTQ | ≤ 0.2 |
| ERAL | ≤ 0.2 |

| Variant | one-hybrid fitness for binding parS DNA |
| --- | --- |
| AIKG | ≤ 0.2 |
| TKKN | ≤ 0.2 |
| NHRS | ≤ 0.2 |
| TDVS | ≤ 0.2 |
| PTAR | ≤ 0.2 |
| VRLI | ≤ 0.2 |
| VDFR | ≤ 0.2 |
| PATA | ≤ 0.2 |
| LTKT | ≤ 0.2 |
| PSPW | ≤ 0.2 |
| GFRV | ≤ 0.2 |
| MARS | ≤ 0.2 |
| QKHR | ≤ 0.2 |
| RSYG | 0.991 |
| GTMR | ≤ 0.2 |
| KYVS | ≤ 0.2 |
| PSQG | ≤ 0.2 |
| THRC | ≤ 0.2 |
| INQE | ≤ 0.2 |
| QKEA | ≤ 0.2 |
| SWRC | ≤ 0.2 |
| NTFW | ≤ 0.2 |
| RDPF | ≤ 0.2 |
| EPNK | ≤ 0.2 |
| RGPT | ≤ 0.2 |
| RVPL | ≤ 0.2 |

| Variant | one-hybrid fitness for binding parS DNA |
| --- | --- |
| LYKV | ≤ 0.2 |
| SPFL | ≤ 0.2 |
| ARAD | ≤ 0.2 |
| DGVD | ≤ 0.2 |
| WFMG | ≤ 0.2 |
| PCAA | ≤ 0.2 |
| NMFC | ≤ 0.2 |
| VCMT | ≤ 0.2 |
| WTAC | ≤ 0.2 |
| WRHG | ≤ 0.2 |
| DVRF | ≤ 0.2 |
| AWFS | ≤ 0.2 |
| QDTS | ≤ 0.2 |
| GSRL | ≤ 0.2 |
| IHTG | ≤ 0.2 |
| DDWR | ≤ 0.2 |
| SAHW | ≤ 0.2 |
| QNKN | ≤ 0.2 |
| INIS | ≤ 0.2 |
| THHL | ≤ 0.2 |
| TQRN | ≤ 0.2 |
| GWQS | ≤ 0.2 |
| SPHK | ≤ 0.2 |
| GNRN | ≤ 0.2 |
| ALCV | ≤ 0.2 |
| MHYR | ≤ 0.2 |

| Variant | one-hybrid fitness for binding parS DNA |
| --- | --- |
| HCNY | ≤ 0.2 |
| QISV | ≤ 0.2 |
| NRHT | ≤ 0.2 |
| HSML | ≤ 0.2 |
| GTTW | ≤ 0.2 |
| IRSN | ≤ 0.2 |
| IKVW | ≤ 0.2 |
| ARRH | ≤ 0.2 |
| PHSI | ≤ 0.2 |
| RCYK | 0.262 |
| HLQN | ≤ 0.2 |
| FASW | ≤ 0.2 |
| HEIY | ≤ 0.2 |
| YTNC | ≤ 0.2 |
| KRWH | ≤ 0.2 |
| TRFH | ≤ 0.2 |
| SDPF | ≤ 0.2 |
| PTIW | ≤ 0.2 |
| NLMN | ≤ 0.2 |
| TYTI | ≤ 0.2 |
| WAGE | ≤ 0.2 |
| HPGG | ≤ 0.2 |
| CGYC | ≤ 0.2 |
